# The list shows a part of the results.
# System: HSkMC (human skeletal muscle cells)
# Assay: cytotoxicity call (relative viability < 0.9)
# Conditions: 10 µM
row,Structure (SMILES),cytotoxicity call
1,Cc1ccc(S(=O)(=O)N(C)C[C@H]2Oc3ccc(NC(=O)Cn4cnnn4)cc3C(=O)N([C@@H](C)CO)C[C@H]2C)cc1,inactive
2,Cc1ccc(S(=O)(=O)Nc2ccc3c(c2)C(=O)N([C@H](C)CO)C[C@H](C)[C@@H](CN(C)C(=O)Nc2ccccc2)OCCCC[C@@H](C)O3)cc1,inactive
3,CC(C)NC(=O)N(C)C[C@H]1Oc2c(NC(=O)C3CCOCC3)cccc2C(=O)N([C@H](C)CO)C[C@@H]1C,inactive
4,C[C@H](CO)N1C[C@H](C)[C@@H](CN(C)Cc2ccncc2)Oc2ccc(NC(=O)CCCN(C)C)cc2C1=O,inactive
5,O=C(C[C@@H]1C[C@@H]2c3cc(NC(=O)NC4CCCC4)ccc3O[C@@H]2[C@H](CO)O1)NCCN1CCCCC1,inactive
6,C[C@@H]1CN([C@@H](C)CO)C(=O)Cc2cc(NS(=O)(=O)c3cn(C)cn3)ccc2O[C@H]1CN(C)CC1CC1,inactive
7,COc1ccc(NC(=O)N(C)C[C@@H]2Oc3ccc(NC(=O)Nc4cccc5ccccc45)cc3CC(=O)N([C@H](C)CO)C[C@@H]2C)cc1,inactive
8,O=C(C[C@H]1CC[C@@H]2[C@H](COC[C@@H](O)CN2C(=O)Nc2ccc(Cl)cc2)O1)NCCc1ccncc1,inactive
9,COc1cccc(c1)CN1CC[C@]2(CC1)CN([C@H](CO)c1c2c2ccc(cc2n1C)OC)C(=O)Nc1ccc(cc1)F,inactive
10,C[C@H](CO)N1C[C@H](C)[C@H](CN(C)S(=O)(=O)c2ccccc2)Oc2ccc(NS(=O)(=O)c3ccccc3)cc2CC1=O,inactive

# System: HepG2
# Assay: cytotoxicity call (relative viability < 0.9)
# Conditions: 10 µM
row,Structure (SMILES),cytotoxicity call
1,O=C(C[C@H]1CC[C@H]2[C@@H](COC[C@@H](O)CN2C(=O)Nc2ccc(C(F)(F)F)cc2)O1)NCc1ccncn1,inactive
2,OC[C@H]1CC[C@@H]2O[C@H](CCc3ccc(C#CCc4ccccc4)cc3)[C@@H](n3cc(-c4ccccc4)nn3)C[C@@H]2O1,inactive
3,Clc1cccc(Cl)c1CSCc1cc2ccccc2o1,inactive
4,CS(=O)(=O)N1[C@@H]2c3ccc(C4=CCCCC4)c(=O)n3C[C@H]1[C@H](CO)[C@H]2C(=O)N1CCOCC1,inactive
5,COc1cccc(C#Cc2ccc3c(c2)O[C@H](CN(C)S(=O)(=O)c2ccccc2F)[C@H](C)CN([C@H](C)CO)S3(=O)=O)c1,inactive
6,C[C@@H]1CN([C@@H](C)CO)C(=O)c2cccc(NC(=O)Nc3ccc4c(c3)OCO4)c2O[C@H]1CN(C)S(C)(=O)=O,inactive
7,COCC(=O)N1C[C@H](C)[C@@H](OC)CN(C)C(=O)c2ccc(NC(=O)c3ccc(F)cc3)cc2OC[C@H]1C,inactive
8,COc1ccc(S(=O)(=O)N(C)C[C@@H]2Oc3cc(C4=CCCC4)ccc3S(=O)(=O)N([C@H](C)CO)C[C@@H]2C)cc1,inactive
9,COc1ccc(C[C@H](N)C(=O)N[C@H]2[C@@H](O)[C@H](n3cnc4c(N(C)C)ncnc43)O[C@@H]2CO)cc1,active
10,O=C(Cc1n[nH]c(=O)[nH]1)NCc1n[nH]c2c1CCCCC2,inactive
11,CCCNC(=O)N1C[C@]2(CN(C2)S(=O)(=O)c2cccc(c2)OC)c2c(n(c3cc(ccc23)OC)C)[C@H]1CO,inactive
12,CCCCN(C/C=C/c1ccccc1OC)Cc1ccccc1,inactive
13,CC(C)CC#Cc1ccc2c(c1)O[C@H](CN(C)CC1CCOCC1)[C@@H](C)CN([C@H](C)CO)S2(=O)=O,inactive
14,C[C@@H]1CN([C@H](C)CO)C(=O)c2cc(NC(=O)Nc3ccccc3)ccc2O[C@@H](C)CCCCO[C@@H]1CN(C)C(=O)C1CCCCC1,inactive
15,C[C@H](CO)N1C[C@H](C)[C@@H](CN(C)C(=O)Nc2cccc(Cl)c2Cl)OCc2ccccc2-c2c(n(C)c3ccccc23)C1=O,active
16,COc1ccc(NC(=O)Nc2ccc3c(c2)C(=O)N([C@H](C)CO)C[C@H](C)[C@H](CN(C)Cc2ccc(Oc4ccccc4)cc2)O3)cc1,inactive
17,C[C@@H](O[C@H]1OCCN(Cc2n[nH]nc2CN(C)C)[C@H]1c1ccc(F)cc1)c1cc(C(F)(F)F)cc(C(F)(F)F)c1,active
18,C[C@H](CO)N1C[C@H](C)[C@H](CN(C)Cc2ccccc2)Oc2ccc(NC(=O)Nc3cccc4ccccc34)cc2C1=O,inactive
19,Cc1ccc(S(=O)(=O)Nc2ccc3c(c2)C(=O)N([C@H](C)CO)C[C@H](C)[C@@H](CN(C)Cc2ccc4c(c2)OCO4)OCCCC[C@H](C)O3)cc1,inactive
20,CCC[C@@H]1C[C@@H](C(=O)N[C@H]([C@H]2O[C@H](SC)[C@H](O)[C@@H](O)[C@H]2O)[C@@H](C)Cl)N(C)C1,inactive

row,Structure (SMILES),cytotoxicity call
1,C[C@@H]1CN([C@@H](C)CO)C(=O)c2cccc(NC(=O)c3ccc(-c4nccs4)cc3)c2O[C@@H]1CN(C)C(=O)Nc1cccc2ccccc12,inactive
2,Cc1ccc(S(=O)(=O)Nc2cc([C@@H](C(=O)OC(C)C)C(=O)C(F)(F)F)c(O)c3ccccc23)c(C)c1,inactive
3,O=C(C[C@@H]1CC=CC[C@H](NC(=O)OCC2c3ccccc3-c3ccccc32)C(=O)O[C@H](c2ccccc2)CNC1=O)N[C@@H](CO)Cc1ccccc1,inactive
4,COc1ccc(S(=O)(=O)N(C)C[C@@H]2Oc3ncc(C#Cc4ccc(OC)c(OC)c4)cc3C(=O)N([C@H](C)CO)C[C@@H]2C)cc1,active
5,CO[C@@H]1CN(C)C(=O)c2cc(NS(C)(=O)=O)ccc2OC[C@H](C)N(C(=O)C2CCOCC2)C[C@@H]1C,inactive
6,C[C@@H]1CN([C@H](C)CO)C(=O)Cc2cc(NC(=O)c3ccncc3)ccc2O[C@H]1CN(C)C(=O)Nc1ccc2c(c1)OCO2,inactive
7,CC(C)CC#Cc1ccc2c(c1)O[C@H](CN(C)C(=O)Cc1ccccn1)[C@H](C)CN([C@H](C)CO)S2(=O)=O,inactive
8,O=C(C[C@H]1C[C@H]2c3cc(NC(=O)c4cccnc4)ccc3O[C@H]2[C@H](CO)O1)NCc1cc(F)ccc1F,inactive
9,O=S(=O)([O-])CCCS(=O)(=O)[O-].[Na+].[Na+],inactive
10,C[C@H](CO)N1C[C@H](C)[C@H](CN(C)S(=O)(=O)c2cn(C)cn2)Oc2ncc(-c3cc4ccccc4o3)cc2C1=O,inactive
11,Cc1ccc(S(=O)(=O)N(C)C[C@H]2Oc3ccc(NC(=O)Cn4cnnn4)cc3C(=O)N([C@@H](C)CO)C[C@H]2C)cc1,inactive
12,Cc1ccc(S(=O)(=O)Nc2ccc3c(c2)C(=O)N([C@H](C)CO)C[C@H](C)[C@@H](CN(C)C(=O)Nc2ccccc2)OCCCC[C@@H](C)O3)cc1,inactive
13,CC(C)NC(=O)N(C)C[C@H]1Oc2c(NC(=O)C3CCOCC3)cccc2C(=O)N([C@H](C)CO)C[C@@H]1C,inactive
14,C[C@H](CO)N1C[C@H](C)[C@@H](CN(C)Cc2ccncc2)Oc2ccc(NC(=O)CCCN(C)C)cc2C1=O,inactive
15,O=C(C[C@@H]1C[C@@H]2c3cc(NC(=O)NC4CCCC4)ccc3O[C@@H]2[C@H](CO)O1)NCCN1CCCCC1,inactive
16,C[C@@H]1CN([C@@H](C)CO)C(=O)Cc2cc(NS(=O)(=O)c3cn(C)cn3)ccc2O[C@H]1CN(C)CC1CC1,inactive
17,COc1ccc(NC(=O)N(C)C[C@@H]2Oc3ccc(NC(=O)Nc4cccc5ccccc45)cc3CC(=O)N([C@H](C)CO)C[C@@H]2C)cc1,inactive
18,O=C(C[C@H]1CC[C@@H]2[C@H](COC[C@@H](O)CN2C(=O)Nc2ccc(Cl)cc2)O1)NCCc1ccncc1,inactive
19,COc1cccc(c1)CN1CC[C@]2(CC1)CN([C@H](CO)c1c2c2ccc(cc2n1C)OC)C(=O)Nc1ccc(cc1)F,inactive
20,C[C@H](CO)N1C[C@H](C)[C@H](CN(C)S(=O)(=O)c2ccccc2)Oc2ccc(NS(=O)(=O)c3ccccc3)cc2CC1=O,inactive
